# Reference: the supplement of paper PMC10037445
# Where “and” joins values, the source holds several entries; their conditions need not be identical. Identical values can stand only once. In all, about 2,900 compounds were measured (“NF-kB SEAP reporter activity, fold change vs agonist alone”: median about 0.99, highest 2% from about 2.6 on). The list shows a part of the results.
# What was measured:
# [1] = test system: RAW-Dual; experiment: NF-kB SEAP reporter activity, fold change vs agonist alone; cytotoxicity flag (confluency mask): not cytotoxic; higher = enhanced NF-kB activity
# Method in brief: (§1)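 Supernatant from RAW-Dual macrophages was read after 20 hours for IRF by QuantiLuc luminescence and for NF-κB by QuantiBlue absorbance at 620 nm. The cells (50,000 cells/well in DMEM, 384-well plates, 37 °C, 5% CO2) had received 50 nL of library stock by pin tool and, 1 h later, a PRR agonist. Reporter activity is expressed relative to agonist-alone wells as fold change, and wells were flagged cytotoxic if IncuCyte confluency was under 70% of agonist controls in both mask sets.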
# [2] = test system: RAW-Dual; experiment: NF-kB SEAP reporter activity, fold change vs agonist alone; higher = enhanced NF-kB activity
# Method in brief: as §1
# [3] = test system: RAW-Dual; experiment: NF-kB SEAP reporter activity, fold change vs agonist alone; cytotoxicity flag (confluency mask): cytotoxic (confluency <70% of control); higher = enhanced NF-kB activity
# Method in brief: as §1
# [4] = agonist: ODN 1826 (TLR9) 0.5 ug/mL
# [5] = agonist: Pam2CSK4 (TLR2/6) 0.1 ug/mL
# [6] = agonist: Pam3CSK4 (TLR2/1) 0.1 ug/mL
# [7] = library stock concentration (final ~1000-fold dilution): 10 mM, cytotoxicity flag (confluency mask): not cytotoxic, agonist: MPLA (TLR4) […]
# [8] = library stock concentration (final ~1000-fold dilution): 10 mM, cytotoxicity flag (confluency mask): not cytotoxic, agonist: Imiquimod (TLR7) […]
structure (smiles),measurement,setting,value
NC(=O)CCC(N)C(=O)O (library stock concentration (final ~1000-fold dilution): L-Glutamine),NF-kB SEAP reporter activity,[1]; agonist: LPS (TLR4) 0.1 ug/mL,1.1
same,NF-kB SEAP reporter activity,[1]; [4],1.14
same,NF-kB SEAP reporter activity,[1]; [5],1.18
same,NF-kB SEAP reporter activity,[1]; [6],1.02
NC(=O)CCC(N)C(=O)O (stereo not given),NF-kB SEAP reporter activity,"[2]; library stock concentration (final ~1000-fold dilution): L-Glutamine, cytotoxicity flag (confluency mask): not cytotoxic, agonist: Imiquimod (TLR7) […]",0.934
same,NF-kB SEAP reporter activity,"[2]; library stock concentration (final ~1000-fold dilution): L-Glutamine, cytotoxicity flag (confluency mask): not cytotoxic, agonist: MPLA (TLR4) […]",1.05
C[N+]1(C)CCC(OC(=O)C(O)(c2ccccc2)C2CCCC2)C1 (stereo not given),NF-kB SEAP reporter activity,[2]; [7],1.11
C[N+]1(C)CCC(OC(=O)C(O)(c2ccccc2)C2CCCC2)C1 (stereo not given) (library stock concentration (final ~1000-fold dilution): 10 mM),NF-kB SEAP reporter activity,[1]; agonist: LPS (TLR4) 0.1 ug/mL,1.13
same,NF-kB SEAP reporter activity,[1]; [4],1
same,NF-kB SEAP reporter activity,[1]; [5],1.09
same,NF-kB SEAP reporter activity,[1]; [6],1.01
O=C(/C=C/c1ccc(O)c(O)c1)OCCc1ccccc1 (library stock concentration (final ~1000-fold dilution): 10 mM),NF-kB SEAP reporter activity,[3]; agonist: LPS (TLR4) 0.1 ug/mL,0.327 and 0.411
same,NF-kB SEAP reporter activity,[3]; [4],0.188 and 0.213
same,NF-kB SEAP reporter activity,[3]; [5],0.0802 and 0.0895
same,NF-kB SEAP reporter activity,[3]; [6],0.15 and 0.167
C=CC(=O)Nc1cccc(Oc2nc(Nc3ccc(N4CCN(C)CC4)cc3OC)ncc2Cl)c1 (library stock concentration (final ~1000-fold dilution): 10 mM),NF-kB SEAP reporter activity,[1]; agonist: LPS (TLR4) 0.1 ug/mL,0.915
same,NF-kB SEAP reporter activity,[1]; [4],0.863
same,NF-kB SEAP reporter activity,[1]; [5],0.802
same,NF-kB SEAP reporter activity,[1]; [6],0.684
C=CC(=O)Nc1cccc(Oc2nc(Nc3ccc(N4CCN(C)CC4)cc3OC)ncc2Cl)c1,NF-kB SEAP reporter activity,[2]; [8],0.931
same,NF-kB SEAP reporter activity,[2]; [7],0.977
CCCC(Nc1nc(-c2ccc(NC(=O)NCC)c(OC)c2)ncc1C)c1cccnc1 (stereo not given) (library stock concentration (final ~1000-fold dilution): 10 mM),NF-kB SEAP reporter activity,[1]; agonist: LPS (TLR4) 0.1 ug/mL,5.93
same,NF-kB SEAP reporter activity,[1]; [4],3.66
same,NF-kB SEAP reporter activity,[1]; [5],2.2
same,NF-kB SEAP reporter activity,[1]; [6],2.92
CCCC(Nc1nc(-c2ccc(NC(=O)NCC)c(OC)c2)ncc1C)c1cccnc1 (stereo not given),NF-kB SEAP reporter activity,[2]; [8],2.63
same,NF-kB SEAP reporter activity,[2]; [7],2.57
Cc1ccccc1CN1C2=NCCN2C(=O)C2=C1CCN(Cc1ccccc1)C2 (library stock concentration (final ~1000-fold dilution): 10 mM),NF-kB SEAP reporter activity,[1]; agonist: LPS (TLR4) 0.1 ug/mL,0.994
same,NF-kB SEAP reporter activity,[1]; [4],1.11
same,NF-kB SEAP reporter activity,[1]; [5],1.02
same,NF-kB SEAP reporter activity,[1]; [6],0.832
Cc1ccccc1CN1C2=NCCN2C(=O)C2=C1CCN(Cc1ccccc1)C2,NF-kB SEAP reporter activity,[2]; [8],0.937
same,NF-kB SEAP reporter activity,[2]; [7],1.04
CCCCCCCCCCCCCCCC(=O)NC(CCSC)C(=O)NCC(=O)NC(Cc1ccc(O)cc1)C(=O)NC(CCC(N)=O)C(=O)NC(CCCCN)C(=O)NC(CCCCN)C(=O)NC(CC(C)C)C(=O)NC(CCCNC(=N)N)C(=O)NC(CO)C(=O)NC(CCSC)C(=O)NC(C(=O)NC(CC(=O)O)C(=O)NC(CCCCN)C(=O)NC(Cc1ccc(O)cc1)C(=O)NC(CCCNC(=N)N)C(=O)NC(CC(C)C)C(=O)O)C(C)O (stereo not given) (library stock concentration (final ~1000-fold dilution): 10 mM),NF-kB SEAP reporter activity,[3]; agonist: LPS (TLR4) 0.1 ug/mL,0.885
same,NF-kB SEAP reporter activity,[3]; [4],0.714
same,NF-kB SEAP reporter activity,[3]; [5],0.614
same,NF-kB SEAP reporter activity,[3]; [6],0.68
CCCCCCCCCCCCCCCC(=O)NC(CCSC)C(=O)NCC(=O)NC(Cc1ccc(O)cc1)C(=O)NC(CCC(N)=O)C(=O)NC(CCCCN)C(=O)NC(CCCCN)C(=O)NC(CC(C)C)C(=O)NC(CCCNC(=N)N)C(=O)NC(CO)C(=O)NC(CCSC)C(=O)NC(C(=O)NC(CC(=O)O)C(=O)NC(CCCCN)C(=O)NC(Cc1ccc(O)cc1)C(=O)NC(CCCNC(=N)N)C(=O)NC(CC(C)C)C(=O)O)C(C)O (stereo not given),NF-kB SEAP reporter activity,"[2]; library stock concentration (final ~1000-fold dilution): 10 mM, cytotoxicity flag (confluency mask): cytotoxic (confluency <70% of control), agonist: Imiquimod (TLR7) […]",1.02
same,NF-kB SEAP reporter activity,"[2]; library stock concentration (final ~1000-fold dilution): 10 mM, cytotoxicity flag (confluency mask): cytotoxic (confluency <70% of control), agonist: MPLA (TLR4) […]",1.02
Cc1ccc2c(c1)C(=O)C1(O)CCN(c3ccccc3)C1=N2 (stereo not given) (library stock concentration (final ~1000-fold dilution): 10 mM),NF-kB SEAP reporter activity,[1]; agonist: LPS (TLR4) 0.1 ug/mL,1.18
same,NF-kB SEAP reporter activity,[1]; [4],0.682
same,NF-kB SEAP reporter activity,[1]; [5],0.891
same,NF-kB SEAP reporter activity,[1]; [6],0.862
Cc1ccc2c(c1)C(=O)C1(O)CCN(c3ccccc3)C1=N2 (stereo not given),NF-kB SEAP reporter activity,[2]; [8],1.07
same,NF-kB SEAP reporter activity,[2]; [7],1.17
C=C(CC(=O)OCCCCCCCC)C(=O)O (library stock concentration (final ~1000-fold dilution): 10 mM),NF-kB SEAP reporter activity,[1]; agonist: LPS (TLR4) 0.1 ug/mL,0.76
same,NF-kB SEAP reporter activity,[1]; [4],0.641
same,NF-kB SEAP reporter activity,[1]; [5],0.455
same,NF-kB SEAP reporter activity,[1]; [6],0.645
C=C(CC(=O)OCCCCCCCC)C(=O)O,NF-kB SEAP reporter activity,[2]; [8],0.711
same,NF-kB SEAP reporter activity,[2]; [7],0.955
CC(CSC(=O)c1ccccc1)C(=O)N1CC(Sc2ccccc2)CC1C(=O)O (stereo not given) (library stock concentration (final ~1000-fold dilution): 2 mM),NF-kB SEAP reporter activity,[1]; agonist: LPS (TLR4) 0.1 ug/mL,1.44
same,NF-kB SEAP reporter activity,[1]; [4],1.01
same,NF-kB SEAP reporter activity,[1]; [5],1.16
same,NF-kB SEAP reporter activity,[1]; [6],1.26
CC(CSC(=O)c1ccccc1)C(=O)N1CC(Sc2ccccc2)CC1C(=O)O (stereo not given),NF-kB SEAP reporter activity,"[2]; library stock concentration (final ~1000-fold dilution): 2 mM, cytotoxicity flag (confluency mask): not cytotoxic, agonist: Imiquimod (TLR7) […]",0.904
same,NF-kB SEAP reporter activity,"[2]; library stock concentration (final ~1000-fold dilution): 2 mM, cytotoxicity flag (confluency mask): not cytotoxic, agonist: MPLA (TLR4) […]",1.02
CS(=O)(=O)N1CCc2c(-c3cnc(N)nc3)nc(N3CCOCC3)nc21,NF-kB SEAP reporter activity,[2]; [8],1.07
same,NF-kB SEAP reporter activity,[2]; [7],0.909
CS(=O)(=O)N1CCc2c(-c3cnc(N)nc3)nc(N3CCOCC3)nc21 (library stock concentration (final ~1000-fold dilution): 10 mM),NF-kB SEAP reporter activity,[1]; agonist: LPS (TLR4) 0.1 ug/mL,1.63
same,NF-kB SEAP reporter activity,[1]; [4],1.13
same,NF-kB SEAP reporter activity,[1]; [5],0.743
same,NF-kB SEAP reporter activity,[1]; [6],0.693
O=c1oc2ccccc2c(O)c1Cc1c(O)c2ccccc2oc1=O,NF-kB SEAP reporter activity,[2]; [8],0.905
same,NF-kB SEAP reporter activity,[2]; [7],0.991
O=c1oc2ccccc2c(O)c1Cc1c(O)c2ccccc2oc1=O (library stock concentration (final ~1000-fold dilution): 10 mM),NF-kB SEAP reporter activity,[1]; agonist: LPS (TLR4) 0.1 ug/mL,1.15
same,NF-kB SEAP reporter activity,[1]; [4],0.94
same,NF-kB SEAP reporter activity,[1]; [5],1.09
same,NF-kB SEAP reporter activity,[1]; [6],0.893
CC1CNCCCN1S(=O)(=O)c1cccc2cncc(F)c12.Cl.O.O (stereo not given),NF-kB SEAP reporter activity,[2]; [8],1.01
same,NF-kB SEAP reporter activity,[2]; [7],1.08
CC1CNCCCN1S(=O)(=O)c1cccc2cncc(F)c12.Cl.O.O (stereo not given) (library stock concentration (final ~1000-fold dilution): 10 mM),NF-kB SEAP reporter activity,[1]; agonist: LPS (TLR4) 0.1 ug/mL,1.11
same,NF-kB SEAP reporter activity,[1]; [4],0.99
same,NF-kB SEAP reporter activity,[1]; [5],1.27
same,NF-kB SEAP reporter activity,[1]; [6],1.5
